Reference: PubChem BioAssay AID1768 (National Center for Advancing Translational Sciences (NCATS), 2009)
The campaign covered roughly 270,000 compounds. About 620 (0.23%) were called active. Inconclusive means that the source gave no clear call. Such entries were picked first, then a sample of the others. Calls come from the whole dose curve; as a rule, active = well fitted inhibition curve with a large enough effect in the polarisation, with a control signal flat (not every such curve was filed as active); inconclusive = small, poorly fitted or top-dose-only effect, or effect the other way, or a change in a side signal; inactive = no such curve, though single readings can be large or run the other way; the % refers to the polarisation. Where the call is inconclusive, the potency comes from a doubtful curve fit. “Side channel” marks fits to a control or component signal instead of the main read-out.

target: Menin (Homo sapiens) (UniProt O00255); assay: qHTS Assay for Inhibitors Targeting the Menin-MLL Interaction in MLL Related Leukemias: Competition With Texas Red Labeled MLL-derived Mutant Peptide; details: fluorescence polarization; series mostly up to 61.6 µM
Potency is the fitted concentration of half-maximal effect; tags give direction and shape of the fitted curve or compound fluorescence and quenching.

UniProt O00255, sequence (O00255 whole entry, looked up): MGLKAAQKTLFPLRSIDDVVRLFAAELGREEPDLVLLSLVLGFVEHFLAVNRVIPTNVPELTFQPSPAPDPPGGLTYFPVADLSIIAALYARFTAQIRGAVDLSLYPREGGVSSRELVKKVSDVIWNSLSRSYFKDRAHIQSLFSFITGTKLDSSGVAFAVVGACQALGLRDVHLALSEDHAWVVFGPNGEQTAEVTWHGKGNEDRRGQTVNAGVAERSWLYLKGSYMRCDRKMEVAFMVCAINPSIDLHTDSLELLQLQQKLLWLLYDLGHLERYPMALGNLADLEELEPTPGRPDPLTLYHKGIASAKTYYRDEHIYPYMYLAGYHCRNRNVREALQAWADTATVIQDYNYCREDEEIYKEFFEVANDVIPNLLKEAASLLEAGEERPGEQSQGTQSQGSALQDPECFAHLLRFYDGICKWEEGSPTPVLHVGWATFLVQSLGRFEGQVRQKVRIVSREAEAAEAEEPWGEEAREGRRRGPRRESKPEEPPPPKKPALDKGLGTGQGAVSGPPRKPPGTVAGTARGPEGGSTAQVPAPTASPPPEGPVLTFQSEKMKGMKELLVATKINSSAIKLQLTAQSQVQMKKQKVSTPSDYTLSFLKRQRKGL

| Compound | Potency |
| --- | --- |
| Clc1ccc2[nH]cc(-c3nnnn3-c3ccc4ccccc4c3)c2c1 | inconclusive: 28.2 µM [inhibitor, single point] |
| CC1=[N+](C)c2c(ccc3cccnc23)C1(C)C | inconclusive: 14.1 µM [fluorescent, side channel, partial curve] |
| Cc1ccc(C(=O)NC(=S)Nc2ccc(-c3ccc(CO)o3)cc2)cc1 | inconclusive: 15.8 µM [quencher, side channel, partial curve] |
| COc1ccc2cc(C(=O)N(C)Cc3ccccc3)[nH]c2c1 | inconclusive: 5.01 µM [inhibitor, single point] |
| COc1ccc(NC(=O)CNc2cccc(C#N)c2)cc1Cl | inactive |
| Cc1ccc(-c2nc(-c3ccccn3)no2)cc1Cl | inconclusive: 2.82 µM [fluorescent, side channel, full curve] |
| N#C/C(=C\c1ccc(-c2ccccc2[N+](=O)[O-])o1)C(=O)Nc1nc(-c2cccs2)cs1 | inconclusive: 11.2 µM [quencher, side channel, partial curve] |
| COc1ccccc1CNC(=O)COc1cc2c(c3oc(=O)cc(C)c13)CCC(C)(C)O2 | inconclusive: 1.26 µM [inhibitor, full curve, poor fit] |
| O=C(/C=C/c1ccc([N+](=O)[O-])cc1)/C=C/c1ccco1 | inconclusive: 20 µM [quencher, side channel, partial curve] |
| COC(=O)C1=C(C)NC(=O)NC1c1ccc(-c2ccccc2Cl)o1 (stereo unspecified) | inconclusive: 20 µM [fluorescent, side channel, partial curve] |
| COCCNC(=O)CC(=O)N/N=C/c1cccc(C(=O)OC)c1 | inconclusive: 22.4 µM [inhibitor, partial curve] |
| CC(=O)Nc1ccc(S(=O)(=O)N2CCN(c3cc(C)ccc3C)CC2)cc1 | inconclusive: 25.1 µM [quencher, side channel, single point] |
| NC(=O)CN(N=Nc1cccc([N+](=O)[O-])c1)c1cccc([N+](=O)[O-])c1 | inconclusive: 14.1 µM [quencher, side channel, partial curve] |
| N#Cc1c(-c2ccccc2)ccnc1Oc1ccccc1 | inconclusive: 39.8 µM [inhibitor, single point] |
| CCc1ccc(NC(=O)c2ccc(Cn3cc([N+](=O)[O-])cn3)cc2)cc1 | inconclusive: 17.8 µM [quencher, side channel, single point] |
| O=C(/C=C/c1ccco1)Nc1cc(Cl)ccc1C(=O)O | inconclusive: 22.4 µM [quencher, side channel, single point] |
